# Measured values taken from PubChem BioAssay AID504832 (National Center for Advancing Translational Sciences (NCATS), 2011).
# The whole screen tested about 310,000 compounds, of which about 18,000 (5.8%) were called active. Inconclusive results, whose numbers are uncertain, are shown with a selection of clear calls. Calls come from the whole dose curve; as a rule, active = well fitted inhibition curve with a large enough effect; inconclusive = small, poorly fitted or top-dose-only effect, or another doubt; inactive = no such curve, though single readings can be large or run the other way. No potency is given beside an inconclusive call; the fits are too rough.
# Test: Primary qHTS for delayed death inhibitors of the malarial parasite plastid, 48 hour incubation
# Details: P. falciparum luciferase growth in erythrocytes; series mostly up to 28.7 µM
# Summary of the method: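 A one-generation exposure of luciferase-tagged malaria parasites in RPMI 1640/Albumax erythrocyte culture, 37 C and 5% CO2. Inhibition is inferred from decreased luminescence after adding detection reagent.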
# Potency is the fitted concentration of half-maximal effect; tags give direction and shape of the fitted curve.
row,Compound,Potency
1,O=C(CCCN1C(=O)/C(=C/c2ccccc2)SC1=S)Nc1cccc(O)c1,"inconclusive [inhibitor, single point]"
2,CCCC(=O)Nc1ccccc1N1CCN(C(=O)C(C)C)CC1,"inconclusive [inhibitor, single point]"
3,O=C(NC1CCCC1)C(c1cccnc1)N(C(=O)c1csnn1)c1ccc(F)cc1 (centres undefined),"inconclusive [inhibitor, single point]"
4,COc1ccc(N(CC(=O)NCCSC2CCCCC2)S(=O)(=O)c2ccccc2)c(OC)c1,"inconclusive [inhibitor, single point]"
5,O=C(CN1C(=O)NC2(CCCCC2)C1=O)Oc1ccc2ccc(=O)oc2c1,inactive
6,COCCNC(=O)c1ccc(Cn2c(=S)[nH]c3cc4c(cc3c2=O)OCO4)cc1,"inconclusive [inhibitor, full curve, poor fit]"
7,O=C(Nc1ccccc1)c1ccc(-c2ccc([N+](=O)[O-])cc2)o1,"inconclusive [inhibitor, single point]"
8,COc1cc(Br)c(CNCCc2ccc3c(c2)OCO3)cc1OC,"inconclusive [inhibitor, single point]"
9,CC(C)Sc1nc2sc(-c3ccccc3)cc2c(=O)n1N,inactive
10,O=[N+]([O-])c1ccc(N2CCN(CCO)CC2)cc1Sc1nc2ccccc2[nH]1,"inconclusive [inhibitor, single point]"
11,COc1cccc(C2NC(=O)c3ccccc3O2)c1OC (centres undefined),inactive
12,CCCC(=O)Oc1ccc(C2NC(=O)c3ccccc3O2)cc1 (centres undefined),inactive
13,COc1ccc(NC(=O)CC2C(=O)N(C)C(=S)N2CCc2ccc(F)cc2)cc1 (centres undefined),"inconclusive [inhibitor, single point]"
14,CN(CC(=O)Nc1ccccc1C(F)(F)F)C(=O)c1cc2c(s1)CCCCC2,"inconclusive [inhibitor, partial curve, poor fit]"
15,O=C(c1cc(Cl)nc2ccccc12)N1CCN(S(=O)(=O)c2cccc(F)c2)CC1,"inconclusive [inhibitor, single point]"
16,O=C1C(c2ccc(F)cc2)N(Cc2ccc3c(c2)OCO3)C(=O)CN1C1CCCCC1 (centres undefined),"inconclusive [inhibitor, partial curve, poor fit]"
17,S=C=Nc1ccc(N=C=S)cc1,inactive
18,CCc1noc(C)c1C(=O)Nc1cc(Cl)ccc1N1CCOCC1,"inconclusive [inhibitor, single point]"
19,FC(F)(F)c1ccccc1C1C2=C(Nc3ncnn31)c1ccccc1CCC2 (centres undefined),"inconclusive [inhibitor, single point]"
20,COc1ccc(CNC(=O)C2CCN(C(=O)[C@@H]3Cc4ccccc4CN3)CC2)cc1,inactive
21,COc1cc(/C=C/C2=NC(=O)C(C)(C)O2)ccc1O,inactive
22,Cc1cccc(C(C)C)c1NC(=O)CN1C(=O)NC(Cc2ccccc2)C1=O (centres undefined),inactive
23,O=C(COc1cc(F)ccc1[N+](=O)[O-])Nc1cccc(S(=O)(=O)NC2=NCCC2)c1,inactive
24,O=S(=O)(c1cc(Cl)ccc1Cl)n1cccn1,inactive
25,OCCCNc1nc(-c2ccc(Cl)cc2)nnc1-c1ccccc1,"inconclusive [inhibitor, single point]"

row,Compound,Potency
1,COc1cccc(-c2nc(-c3ccccc3)nc(N3CCN(C)CC3)c2C#N)c1,inactive
2,Cc1ccc2[nH]c(C(=O)N3CCCC(Nc4ccc(F)cc4)C3)cc2c1 (centres undefined),"inconclusive [inhibitor, single point]"
3,Cc1ccccc1N1CCN(C2CCCN(C(=O)c3cc(CC(C)C)nn3C)C2)CC1 (centres undefined),"inconclusive [inhibitor, partial curve, poor fit]"
4,CS(=O)(=O)NN1C(=O)c2ccccc2NC1c1cccc(O)c1 (centres undefined),inactive
5,CCN1CCN(c2ccc(S(=O)(=O)N3CCCCC3)cc2NC(=O)Cc2c(F)cccc2Cl)CC1,"inconclusive [inhibitor, single point]"
6,CC(C)(C)n1nnnc1CN1CCN(C(c2ccccc2)c2ccccc2)CC1,active: 5.22 µM
7,COc1ccc(C(=O)N2CCn3c(C)ccc3C2C)cc1 (centres undefined),"inconclusive [inhibitor, single point]"
8,CCC(=O)Nc1cccc(C(=O)c2ccc(C)c(C)c2)c1,inactive
9,CCOC(=O)N1CCC(N(CCOC)C(=O)Nc2ccc(C)c(C)c2)CC1,"inconclusive [inhibitor, partial curve]"
10,CCc1cccc(C)c1NC(=O)c1cc(-c2ccncc2)nc2ccccc12,active: 10.4 µM
11,CCOC(=O)CN(C(=O)CSc1nnc(COc2ccc(OC)cc2)n1CC)c1ccccc1,active: 8.28 µM
12,Cc1cc(F)ccc1S(=O)(=O)N1CCCOC1CNC(=O)C(=O)NCCC1=CCCCC1 (centres undefined),"inconclusive [inhibitor, single point]"
13,COc1ccc(/C(C)=N/NC(=O)c2nnn(-c3nonc3N)c2-c2cccs2)cc1OC,inactive
14,FC(F)(F)COc1cc(-c2nnc(SCc3ccccc3)n2Cc2ccco2)cc(OCC(F)(F)F)n1,active: 6.57 µM
15,O=C(Nc1ccc(N2CCN(Cc3ccccc3)CC2)cc1)c1ncn[nH]1,active: 5.86 µM
16,COc1ccc(CCNC(=O)COc2cc(O)c3c(c2)OC(C)(C)CC3=O)cc1OC,"inconclusive [inhibitor, partial curve, poor fit]"
17,COc1ccc(CN(C)CC(=O)Nc2cccc(S(N)(=O)=O)c2)c(OC)c1OC,inactive
18,CCOC(=O)c1c(NC(=O)COC(=O)Cc2c[nH]c3ccccc23)sc(C(=O)N(C)C)c1C,"inconclusive [inhibitor, single point]"
19,Cn1c(-c2ccc(Br)cc2)cnc1NCc1ccc(C#N)cc1,"inconclusive [inhibitor, single point]"
20,Cc1ccccc1NC(=O)Cc1nc(COC(=O)CCc2ccccc2)cs1,inactive
21,CC(=O)Nc1cccc(C(=O)OCC(=O)Nc2c(C)nn(-c3ccccc3)c2C)c1,inactive
22,COC(=O)c1sccc1NC(=O)COc1ccccc1Cl,inactive
23,O=C(CSc1ncn[nH]1)c1cccc([N+](=O)[O-])c1,inactive
24,Cc1ccc(CSc2ccc(-c3ccc4c(c3)OCO4)nn2)cc1,inactive
25,COCC(C)n1c(C)cc(C(=O)CSc2nnnn2-c2ccc(O)cc2)c1C (centres undefined),"inconclusive [inhibitor, single point]"

row,Compound,Potency
1,COc1ccccc1NS(=O)(=O)c1cccc(C(=O)N/N=C/c2ccc([N+](=O)[O-])o2)c1,active: 1.85 µM
2,CCOC(=O)c1[nH]c2ccccc2c1NC(=O)c1ccc(S(=O)(=O)N2CCCCC2)cc1,"inconclusive [inhibitor, single point]"
3,O=c1c2c(nc3c(-c4ccccc4)c[nH]n13)CCC2,inactive
4,CCC1CCCCN1C(=O)CSc1nnc(-c2ccc3c(c2)OCCO3)o1 (centres undefined),"inconclusive [inhibitor, single point]"
5,COc1ccc(C2C(C#N)=C(N)N(Nc3ccccc3)C3=C2C(=O)CC(C)(C)C3)cc1C (centres undefined),"inconclusive [inhibitor, single point]"
6,CC(C)(C)c1ccc(COc2ccsc2C(=O)O)cc1,"inconclusive [inhibitor, partial curve, poor fit]"
7,COc1cc2cccc(OC)c(=O)c2c(OC)c1OC,"inconclusive [inhibitor, single point]"
8,COc1cccc(C(c2c(NC(=O)c3ccco3)sc(C)c2C)N2CCOCC2)c1 (centres undefined),active: 4.65 µM
9,CC(=O)N1CCN(c2ncnc3ccccc23)CC1,inactive
10,CSc1nccc(NC(=O)c2ccc(C(C)(C)C)cc2)n1,inactive
11,Cn1c(=O)n(CCc2ccccc2)c(=O)c2c1nc1n2CCN1Cc1ccco1,active: 8.28 µM
12,COc1ccc(C2C(C(=O)Nc3cc(OC)c(OC)c(OC)c3)c3ccccc3C(=O)N2C)cc1OC (centres undefined),active: 11.7 µM
13,CC1CCc2c(sc(NC(=O)C3c4ccccc4Oc4ccccc43)c2C(N)=O)C1 (centres undefined),"inconclusive [inhibitor, single point]"
14,CCOC(=O)c1c(-c2ccc(OC)cc2)csc1NC(=O)CCN1C(=O)c2ccccc2C1=O,inactive
15,COc1ccc(N2CCN(C(=O)C3CCN(S(=O)(=O)c4ccccc4)CC3)CC2)cc1,"inconclusive [inhibitor, partial curve, poor fit]"
16,Cc1ccc(C)c(NS(=O)(=O)c2cc(C(=O)NCc3ccccn3)ccc2C)c1,inactive
17,CCCCNC(=O)c1cc2c(C)cc(C)cc2[nH]1,"inconclusive [inhibitor, single point]"
18,COc1ccc(-c2nnn(CC(=O)NCCc3c[nH]c4ccccc34)n2)cc1OC,inactive
19,COc1cccc(/C=N/N2CCN(c3ccccc3OC)CC2)c1,inactive
20,CCCOc1ccc(C(F)(F)F)cc1NC(=O)CCc1c(C)noc1C,"inconclusive [inhibitor, single point]"
21,O=C(COC(=O)CNC(=O)c1ccccc1F)NC12CC3CC(CC(C3)C1)C2,inactive
22,Cc1cc(C)nc(-n2nc(C)cc2NC(=O)c2ccc(S(=O)(=O)N3CCOCC3)cc2)n1,"inconclusive [inhibitor, full curve]"
23,O=S(=O)(NC1CCN(Cc2ccccc2)CC1)c1ccc(Cl)cc1,"inconclusive [inhibitor, single point]"
24,COc1ccc(N2CCN(c3ncnc4scc(-c5ccc(F)cc5)c34)CC2)cc1,"inconclusive [inhibitor, single point]"
